Some of the results follow.
Experiments:
Test in all cases: glycan array binding signal (z-score within array); higher = stronger binding
Settings in all cases: glycan notation: IUPAC condensed, linker removed
Fuc(a1-2)Gal = molecular target: Fuc(a1-2)Gal
Summary of the method: (§1)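 Glycan array data came from 3228 arrays in the Consortium for Functional Glycomics database, and only arrays with an available protein sequence were kept. Glycan names were put into IUPAC-condensed notation, and columns mapping to the same glycan were averaged. The binding signal is a within-array Z-score, averaged across arrays of one protein sequence run at different concentrations or buffers and across linkers. A negative Z-score can be read as non-binding.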

Fuc(a1-2)Gal(b1-3)GalNAc = molecular target: Fuc(a1-2)Gal(b1-3)GalNAc
Summary of the method: as §1

[1] = molecular target: Fuc(a1-2)Gal(b1-3)GalNAc(a1-3)[Fuc(a1-2)]Gal(b1-4)Glc
Summary of the method: as §1

[2] = molecular target: Fuc(a1-2)Gal(b1-3)GalNAc(a1-3)[Fuc(a1-2)]Gal(b1-4)GlcNAc
Summary of the method: as §1

[3] = molecular target: Fuc(a1-2)Gal(b1-3)GalNAc(b1-3)Gal
Summary of the method: as §1

[4] = molecular target: Fuc(a1-2)Gal(b1-3)GalNAc(b1-3)Gal(a1-4)Gal(b1-4)Glc
Summary of the method: as §1

[5] = molecular target: Fuc(a1-2)Gal(b1-3)GalNAc(b1-4)[Neu5Ac(a2-3)]Gal(b1-4)Glc
Summary of the method: as §1

Fuc(a1-2)Gal(b1-3)GlcNAc = molecular target: Fuc(a1-2)Gal(b1-3)GlcNAc
Summary of the method: as §1

[6] = molecular target: Fuc(a1-2)Gal(b1-3)GlcNAc(b1-2)Man(a1-3)[Fuc(a1-2)Gal(b1-3)GlcNAc(b1-2)Man(a1-6)]Man(b1-4)GlcNAc(b1-4)GlcNAc
Summary of the method: as §1

[7] = molecular target: Fuc(a1-2)Gal(b1-3)GlcNAc(b1-2)Man(a1-3)[Fuc(a1-2)Gal(b1-3)GlcNAc(b1-2)Man(a1-6)]Man(b1-4)GlcNAc(b1-4)[Fuc(a1-6)]GlcNAc
Summary of the method: as §1

[8] = molecular target: Fuc(a1-2)Gal(b1-3)GlcNAc(b1-3)Gal(b1-4)Glc
Summary of the method: as §1

[9] = molecular target: Fuc(a1-2)Gal(b1-3)GlcNAc(b1-3)GalNAc
Summary of the method: as §1

[10] = molecular target: Fuc(a1-2)Gal(b1-3)GlcNAc(b1-3)[Fuc(a1-2)Gal(b1-3)GlcNAc(b1-6)]GalNAc
Summary of the method: as §1

[11] = molecular target: Fuc(a1-2)Gal(b1-3)GlcNAc(b1-3)[Gal(b1-4)GlcNAc(b1-6)]Gal(b1-4)Glc
Summary of the method: as §1

[12] = molecular target: Fuc(a1-2)Gal(b1-3)GlcNAc(b1-3)[Neu5Ac(a2-6)Gal(b1-4)GlcNAc(b1-6)]Gal(b1-4)Glc
Summary of the method: as §1

[13] = molecular target: Fuc(a1-2)Gal(b1-3)GlcNAc6S
Summary of the method: as §1

[14] = molecular target: Fuc(a1-2)Gal(b1-3)[Fuc(a1-4)]GlcNAc
Summary of the method: as §1

[15] = molecular target: Fuc(a1-2)Gal(b1-3)[Fuc(a1-4)]GlcNAc(b1-2)Man(a1-3)[Fuc(a1-2)Gal(b1-3)[Fuc(a1-4)]GlcNAc(b1-2)Man(a1-3)]Man(b1-4)GlcNAc(b1-4)GlcNAc
Summary of the method: as §1

[16] = molecular target: Fuc(a1-2)Gal(b1-3)[Fuc(a1-4)]GlcNAc(b1-2)Man(a1-3)[Fuc(a1-2)Gal(b1-3)[Fuc(a1-4)]GlcNAc(b1-2)Man(a1-6)]Man(b1-4)GlcNAc(b1-4)[Fuc(a1-6)]GlcNAc(b1-4)[Fuc(a1-6)]GlcNAc
Summary of the method: as §1

[17] = molecular target: Fuc(a1-2)Gal(b1-3)[Fuc(a1-4)]GlcNAc(b1-3)[Fuc(a1-3)[Gal(b1-4)]GlcNAc(b1-6)]Gal(b1-4)Glc
Summary of the method: as §1

[18] = molecular target: Fuc(a1-2)Gal(b1-3)[Fuc(a1-4)]GlcNAc(b1-3)[Gal(b1-4)GlcNAc(b1-6)]Gal(b1-4)Glc
Summary of the method: as §1

Fuc(a1-2)Gal(b1-4)Glc = molecular target: Fuc(a1-2)Gal(b1-4)Glc
Summary of the method: as §1

Fuc(a1-2)Gal(b1-4)Glc6S = molecular target: Fuc(a1-2)Gal(b1-4)Glc6S
Summary of the method: as §1

Fuc(a1-2)Gal(b1-4)GlcNAc = molecular target: Fuc(a1-2)Gal(b1-4)GlcNAc
Summary of the method: as §1

[19] = molecular target: Fuc(a1-2)Gal(b1-4)GlcNAc(b1-2)Man
Summary of the method: as §1

[20] = molecular target: Fuc(a1-2)Gal(b1-4)GlcNAc(b1-2)Man(a1-3)[Fuc(a1-2)Gal(b1-4)GlcNAc(b1-2)Man(a1-6)]Man(b1-4)GlcNAc(b1-4)GlcNAc
Summary of the method: as §1

[21] = molecular target: Fuc(a1-2)Gal(b1-4)GlcNAc(b1-2)Man(a1-3)[Fuc(a1-2)Gal(b1-4)GlcNAc(b1-2)Man(a1-6)]Man(b1-4)GlcNAc(b1-4)[Fuc(a1-6)]GlcNAc
Summary of the method: as §1

[22] = molecular target: Fuc(a1-2)Gal(b1-4)GlcNAc(b1-2)[Fuc(a1-2)Gal(b1-4)GlcNAc(b1-4)]Man(a1-3)[Fuc(a1-2)Gal(b1-4)GlcNAc(b1-2)Man(a1-6)]Man(b1-4)GlcNAc(b1-4)GlcNAc
Summary of the method: as §1

[23] = molecular target: Fuc(a1-2)Gal(b1-4)GlcNAc(b1-3)Gal(b1-4)GlcNAc
Summary of the method: as §1

[24] = molecular target: Fuc(a1-2)Gal(b1-4)GlcNAc(b1-3)Gal(b1-4)GlcNAc(b1-2)Man(a1-3)[Fuc(a1-2)Gal(b1-4)GlcNAc(b1-3)Gal(b1-4)GlcNAc(b1-2)Man(a1-6)]Man(b1-4)GlcNAc(b1-4)GlcNAc
Summary of the method: as §1

B1: PX14375l-pdi-526-25-526 (Parabacteroides distasonis) (protein)
chain: DEEPKSTLTDVAYYKTQSQMESNVNYLYRTGAIGSYVDFGSAYIGPFASIQEELTGYFSNSYEGQEIVCRYTRELTRQQNTMQLASKMDKVWDDCYRGINVANGAIKHMPEVPMDQATADRLTAEAKFFRAFNYFYLVKTFGAVPFYTDPYELAENMELPRTETSTIYNQIESDLKDAMNVLPEATFAANGHRITKYVAAMTLTDVYMYQHKYAEAAETVRIVVNSNHKLTTNDDLAMNSAFNKLRSTDDLDEAIYAYEYDNQISPSNWLPTYAFDGDASSNGLFGTYAITQKVHGPNDRYLNIYESNDLRRQPNQFYHWTYTNPKTGKVWNSVGNAACCWYYYDEDALLTTGRGTKDWNVYRYAEALLDAAESIAQSTGVTAEAAGYLAQVKARANMEGKTAAEIASSLQSMGKQAFIEECWTERLRELPLEFKMWDMCVRTGMFPNISETTPGQVTYIPLVGAKNASGATIKESDLLWPLSVNEIQRNPSLTQNEGYSAK
**Q.** How did the “glycan array binding signal (z-score)” value (Fuc(a1-2)Gal) turn out when B1 was run?
**A.** -0.346

**Q.** And the “glycan array binding signal (z-score)” value (Fuc(a1-2)Gal(b1-3)GalNAc)?
**A.** -0.202

**Q.** And the “glycan array binding signal (z-score)” value [1]?
**A.** -0.083

**Q.** What about the “glycan array binding signal (z-score)” value [2] of the same binder?
**A.** -0.219

**Q.** What about the “glycan array binding signal (z-score)” value [3] of the same binder?
**A.** -0.282

**Q.** What about the “glycan array binding signal (z-score)” value [4] of the same binder?
**A.** -0.199

**Q.** And the “glycan array binding signal (z-score)” value [5]?
**A.** -0.179

**Q.** What about the “glycan array binding signal (z-score)” value (Fuc(a1-2)Gal(b1-3)GlcNAc) of the same binder?
**A.** -0.314

**Q.** What about the “glycan array binding signal (z-score)” value [6] of the same binder?
**A.** -0.052

**Q.** And the “glycan array binding signal (z-score)” value [7]?
**A.** 0.156

**Q.** And the “glycan array binding signal (z-score)” value [8]?
**A.** -0.43

**Q.** And the “glycan array binding signal (z-score)” value [9]?
**A.** -0.246

**Q.** And the “glycan array binding signal (z-score)” value [10]?
**A.** 0.39

**Q.** What about the “glycan array binding signal (z-score)” value [11] of the same binder?
**A.** 0.058

**Q.** And the “glycan array binding signal (z-score)” value [12]?
**A.** -0.069

**Q.** And the “glycan array binding signal (z-score)” value [13]?
**A.** -0.185

**Q.** What about the “glycan array binding signal (z-score)” value [14] of the same binder?
**A.** -0.349

**Q.** And the “glycan array binding signal (z-score)” value [15]?
**A.** -0.14

**Q.** What about the “glycan array binding signal (z-score)” value [16] of the same binder?
**A.** 0.236

**Q.** What about the “glycan array binding signal (z-score)” value [17] of the same binder?
**A.** 0.176

**Q.** And the “glycan array binding signal (z-score)” value [18]?
**A.** -0.446

**Q.** What about the “glycan array binding signal (z-score)” value (Fuc(a1-2)Gal(b1-4)Glc) of the same binder?
**A.** -0.179

**Q.** What about the “glycan array binding signal (z-score)” value (Fuc(a1-2)Gal(b1-4)Glc6S) of the same binder?
**A.** -0.176

**Q.** What about the “glycan array binding signal (z-score)” value (Fuc(a1-2)Gal(b1-4)GlcNAc) of the same binder?
**A.** -0.202

**Q.** What about the “glycan array binding signal (z-score)” value [19] of the same binder?
**A.** -0.198

**Q.** And the “glycan array binding signal (z-score)” value [20]?
**A.** 3.23

**Q.** What about the “glycan array binding signal (z-score)” value [21] of the same binder?
**A.** 0.097

**Q.** What about the “glycan array binding signal (z-score)” value [22] of the same binder?
**A.** 0.132

**Q.** What about the “glycan array binding signal (z-score)” value [23] of the same binder?
**A.** -0.078

**Q.** What about the “glycan array binding signal (z-score)” value [24] of the same binder?
**A.** -0.157
